About 220 (0.56%) of roughly 39,000 compounds showed activity. The list shows a part of the results.
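Note: static incubation at 37 °C against the wild-type strain, values averaged over two biological replicates.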

The assay deals with Escherichia coli K-12 BW25113. The assay is described as follows: relative growth (OD600 normalised to plate interquartile mean) (fraction); higher = less growth inhibition, active = 0.2 or less. As to conditions: 50 µM; LB; incubation time: overnight (16-24 h).
With `CC(C)NC(=O)Nc1ccc2c(c1)C(=O)N([C@H](C)CO)C[C@H](C)[C@@H](CN(C)C(=O)Nc1ccc3c(c1)OCO3)O2`, the relative growth was inactive: 0.997.

On to `N=C(N)SCCN1C(=O)c2ccccc2C1=O`, for which the relative growth is inactive: 0.996.

Regarding `COc1ccc(CN(C)C[C@@H]2OCCCC[C@H](C)Oc3ccc(NC(=O)Nc4c(C)noc4C)cc3C(=O)N([C@@H](C)CO)C[C@@H]2C)cc1`, the relative growth was inactive: 1.01.

`CC(=O)Nc1ccccc1`: the relative growth is inactive: 0.95.

Turning to `C[C@H](CO)N1C[C@H](C)[C@@H](CN(C)S(=O)(=O)c2ccc(Cl)cc2)Oc2c(cccc2N(C)C)C1=O`, the relative growth is inactive: 1.01.

In the case of `Cc1noc(C)c1NC(=O)N[C@H]1C=C[C@H](CC(=O)N2CCN(C)CC2)O[C@H]1CO`, the relative growth is inactive: 1.02.

`CNC(=O)c1ccc2c(c1)nnn2C`: the relative growth is inactive: 0.978.

Regarding `C[C@H](CO)N1C[C@H](C)[C@H](CN(C)C(=O)C2CCCCC2)OCCCC[C@H](C)Oc2ccc(NC(=O)c3ccccc3)cc2C1=O`, the relative growth is inactive: 0.992.

Turning to `CC(C)CCC[C@@H](C)[C@H]1CC[C@H]2[C@@H]3CCC4=C/C(=N/O)CC[C@]4(C)[C@H]3CC[C@]12C`, the relative growth was inactive: 0.982.

For the molecule `C[C@H](CO)N1C[C@H](C)[C@H](CN(C)Cc2ccccc2)Oc2c(NC(=O)Nc3cccc4ccccc34)cccc2C1=O`, the relative growth was inactive: 1.

Turning to `C[C@@H]1CN([C@H](C)CO)S(=O)(=O)c2ccc(C#CCC3CCCC3)cc2O[C@H]1CN(C)C(=O)CN(C)C`, the relative growth is inactive: 0.817.

Take `CNC(=O)C[C@@H]1CC[C@H]2[C@@H](COC[C@H](O)CN2C(=O)Nc2ccc3c(c2)OCO3)O1`: the relative growth was inactive: 0.967.

Take `C[C@@H]1CN([C@H](C)CO)C(=O)Cc2cc(NS(=O)(=O)c3cn(C)cn3)ccc2O[C@@H]1CN(C)C(=O)NC1CCCCC1`: the relative growth was inactive: 1.

As for `CC(=O)Oc1ccc(-c2cc(=O)c3c(OC(C)=O)cc(OC(C)=O)cc3o2)cc1`, the relative growth is inactive: 0.979.

In the case of `COCCN1C(=O)C[C@@H]2[C@@H]1CCN2C(=O)c1csnn1`, the relative growth was inactive: 0.968.

For `CCCCCCCCCCCCCCCC[N+](C)(C)CCN(Cc1ccc(OC)cc1)c1ncccn1`, the relative growth is inactive: 0.555.

In the case of `C[C@H](CO)N1C[C@H](C)[C@@H](CN(C)C(=O)Cc2ccccc2)OCCCC[C@H](C)Oc2ccc(NC(=O)Nc3ccc4c(c3)OCO4)cc2C1=O`, the relative growth is inactive: 1.05.

Take `C[C@@H]1CN([C@H](C)CO)C(=O)c2cc(NC(=O)Nc3ccc(C(F)(F)F)cc3)ccc2O[C@@H]1CN(C)Cc1ccc(C(=O)Nc2ccccc2N)cc1`: the relative growth is inactive: 0.977.

In the case of `C[C@H]1CN([C@@H](C)CO)C(=O)c2cccc(NC(=O)C3CC3)c2O[C@@H]1CN(C)S(=O)(=O)c1ccc(Cl)cc1`, the relative growth was inactive: 1.

Take `COCC1=C(C(=O)OC(C)OC(=O)OC(C)C)N2C(=O)C(NC(=O)C(=NOC)c3csc(N)n3)C2SC1` (stereo not given): the relative growth was inactive: 0.551.

For the molecule `C[C@H]1CN([C@@H](C)CO)C(=O)c2c(c3ccccc3n2C)-c2ccccc2CO[C@@H]1CN(C)C(=O)CCC(F)(F)F`, the relative growth is inactive: 0.991.

In the case of `CC(C)NC(=O)N(C)C[C@H]1Oc2ccc(NC(=O)CCCN(C)C)cc2CC(=O)N([C@@H](C)CO)C[C@@H]1C`, the relative growth is inactive: 0.987.

For the molecule `C[C@H]1CN([C@@H](C)CO)C(=O)c2cccc(NC(=O)c3cnccn3)c2O[C@H]1CN(C)Cc1ccc(C(=O)O)cc1`, the relative growth is inactive: 1.

For the molecule `C[C@@H]1CN([C@H](C)CO)C(=O)c2cc(NS(C)(=O)=O)ccc2O[C@@H]1CN(C)S(=O)(=O)c1ccc(F)cc1`, the relative growth is inactive: 0.991.

For `C[C@@H]1CCCCO[C@H](CN(C)C(=O)CCC(F)(F)F)[C@@H](C)CN([C@H](C)CO)C(=O)c2cc(NC(=O)Nc3ccc4c(c3)OCO4)ccc2O1`, the relative growth is inactive: 0.976.

For `C[C@@H]1CN([C@@H](C)CO)C(=O)CCCn2nncc2CO[C@@H]1CN(C)S(=O)(=O)c1ccc(C#N)cc1`, the relative growth is inactive: 1.01.

Take `C[C@H](CO)N1C[C@H](C)[C@H](CN(C)C(=O)Nc2ccc3c(c2)OCO3)OCCCC[C@H](C)Oc2ccc(NC(=O)c3ccccc3)cc2C1=O`: the relative growth was inactive: 1.05.

`Cc1noc(C)c1S(=O)(=O)Nc1ccc2c(c1)C(=O)N([C@@H](C)CO)C[C@@H](C)[C@@H](CN(C)S(=O)(=O)c1ccc(F)cc1)O2`: the relative growth is inactive: 1.

Take `C[C@H](CO)N1C[C@H](C)[C@@H](CN(C)S(=O)(=O)c2ccc(-n3cccn3)cc2)OCc2cnnn2CCCC1=O`: the relative growth is inactive: 0.997.

`O=C(Cn1nncc1COc1ccc2ccccc2c1)NS(=O)(=O)c1ccccc1OC(F)(F)F`: the relative growth was inactive: 0.988.

For `COc1ccc(S(=O)(=O)Nc2ccc3c(c2)C(=O)N([C@H](C)CO)C[C@@H](C)[C@H](CN(C)S(=O)(=O)c2ccc(F)cc2)O3)cc1`, the relative growth was inactive: 1.01.

As for `C[C@@H]1CN([C@H](C)CO)C(=O)c2cc(NS(=O)(=O)c3ccc(Cl)cc3)ccc2O[C@@H](C)CCCCO[C@H]1CN(C)S(=O)(=O)c1ccc(Cl)cc1`, the relative growth was inactive: 0.993.

In the case of `CCOc1nc2cccc(C(=O)OC(C)OC(=O)OC3CCCCC3)c2n1Cc1ccc(-c2ccccc2-c2nnn[nH]2)cc1` (stereo not given), the relative growth was inactive: 0.795.

`COc1ccc(cc1)CN1CC[C@]2(CC1)CN([C@H](CO)c1[nH]c3cc(ccc3c12)OC)C(=O)CN(C)C`: the relative growth was inactive: 0.98.

Regarding `COC(=O)C1=C(C)NC(C)=C(C(=O)OCCN2CCN(C(c3ccccc3)c3ccccc3)CC2)C1c1cccc([N+](=O)[O-])c1` (stereo not given), the relative growth was inactive: 1.17.

As for `Cn1nnc2c(N3CCCC3)ncnc21`, the relative growth is inactive: 1.

For `Cc1noc(C)c1S(=O)(=O)N(C)C[C@H]1Oc2ccc(NC(=O)NC(C)C)cc2CC(=O)N([C@H](C)CO)C[C@@H]1C`, the relative growth was inactive: 0.962.

As for `C[C@@H]1CCCCO[C@H](CN(C)Cc2ccc(C(=O)O)cc2)[C@@H](C)CN([C@@H](C)CO)C(=O)c2cc(NC(=O)CCC(F)(F)F)ccc2O1`, the relative growth is inactive: 1.02.

Turning to `CC(C)NC(=O)N(C)C[C@@H]1Oc2c(NC(=O)C3CCOCC3)cccc2C(=O)N([C@@H](C)CO)C[C@H]1C`, the relative growth is inactive: 0.977.

`C[C@@H]1CCCCO[C@H](CN(C)C(=O)NC2CCCCC2)[C@@H](C)CN([C@H](C)CO)C(=O)c2cc(NC(=O)Nc3ccc(F)cc3)ccc2O1`: the relative growth is inactive: 0.984.

On to `COCCCNC(=O)C[C@H]1SC(=N)NC1=O`, for which the relative growth was inactive: 1.02.

Consider `Cc1ccc(C)c(Cc2cc(Cl)ccc2Cl)c1`, for which the relative growth is inactive: 0.891.

Consider `C[C@@H]1CCCCO[C@@H](CN(C)S(=O)(=O)c2cccs2)[C@@H](C)CN([C@H](C)CO)C(=O)c2cc(NS(C)(=O)=O)ccc2O1`, for which the relative growth was inactive: 0.943.

`Cc1noc(C)c1S(=O)(=O)Nc1ccc2c(c1)CC(=O)N([C@@H](C)CO)C[C@@H](C)[C@H](CN(C)Cc1ccncc1)O2`: the relative growth was inactive: 0.998.

With `C[C@H](CO)N1C[C@H](C)[C@@H](CN(C)C(=O)Cc2ccccc2)OCCCC[C@H](C)Oc2ccc(NS(=O)(=O)c3ccc(F)cc3)cc2C1=O`, the relative growth is inactive: 0.992.

Turning to `C[C@@H]1CN([C@@H](C)CO)C(=O)c2cc(NC(=O)C3CCCCC3)ccc2O[C@H]1CN(C)Cc1ccc(C(F)(F)F)cc1`, the relative growth was inactive: 1.03.

Regarding `Cc1noc(C)c1NC(=O)Nc1ccc2c(c1)C(=O)N([C@H](C)CO)C[C@H](C)[C@H](CN(C)Cc1ccc(Cl)c(Cl)c1)OCCCC[C@H](C)O2`, the relative growth is inactive: 1.02.

Consider `C[C@@H]1CN([C@@H](C)CO)C(=O)c2cccc(NC(=O)C3CC3)c2O[C@H]1CN(C)C(=O)Nc1ccc2c(c1)OCO2`, for which the relative growth was inactive: 1.

In the case of `COc1cc2c(cc1OC)CN(C(=O)[C@H]1[C@@H]3C(=O)O[C@@H](c4ccccc4)[C@@H](c4ccccc4)N3[C@@H](c3ccc(O)cc3)[C@]13C(=O)Nc1ccc(C#CC4(O)CCCCCC4)cc13)CC2`, the relative growth is inactive: 1.03.

Regarding `O=C(C[C@@H]1C[C@@H]2c3cc(NC(=O)c4ccc5c(c4)OCO5)ccc3O[C@@H]2[C@H](CO)O1)NCCc1ccccc1`, the relative growth is inactive: 1.01.

For `C[C@@H]1CCCCO[C@@H](CN(C)S(C)(=O)=O)[C@@H](C)CN([C@H](C)CO)C(=O)c2cc(NS(C)(=O)=O)ccc2O1`, the relative growth is inactive: 1.04.

Regarding `C[C@H](CO)N1C[C@H](C)[C@@H](CN(C)C(=O)Nc2ccc(C(F)(F)F)cc2)Oc2c(NC(=O)Nc3ccc(C(F)(F)F)cc3)cccc2C1=O`, the relative growth is inactive: 0.952.

Consider `C[C@@H]1CCCCO[C@H](CN(C)C(=O)C2CCCCC2)[C@H](C)CN([C@H](C)CO)C(=O)c2cc(NS(=O)(=O)c3ccc(Cl)cc3)ccc2O1`, for which the relative growth was inactive: 1.01.

In the case of `CCS(=O)(=O)NCC[C@@H]1CC[C@H](NC(=O)Cc2ccccn2)[C@@H](CO)O1`, the relative growth was inactive: 1.02.

Turning to `CC(O)C1C(=O)N2C(C(=O)O)=C(SC3CNC(C(=O)N(C)C)C3)C(C)C12` (stereo not given), the relative growth was active: 0.0517.

For `O=C(CN1CCOCC1)N[C@H]1CC[C@H](CCn2cc(C3CCCC3)nn2)O[C@@H]1CO`, the relative growth was inactive: 0.963.

As for `C[C@@H]1CN([C@H](C)CO)S(=O)(=O)c2ccc(C#CCN(C)C)cc2O[C@H]1CN(C)C(=O)CN(C)C`, the relative growth was inactive: 1.

With `COc1ccc(S(=O)(=O)N(C)C[C@H]2OCCCC[C@@H](C)Oc3ccc(NC(=O)Nc4ccc5c(c4)OCO5)cc3C(=O)N([C@@H](C)CO)C[C@H]2C)cc1`, the relative growth was inactive: 1.02.

Regarding `COc1ccc(NC(=O)Nc2ccc3c(c2)C(=O)N([C@H](C)CO)C[C@H](C)[C@H](CN(C)Cc2ccc(C(=O)O)cc2)OCCCC[C@@H](C)O3)cc1`, the relative growth is inactive: 1.01.

As for `Cc1cc(C(=O)Nc2cccc3c2O[C@H](CN(C)S(=O)(=O)c2ccccc2)[C@H](C)CN([C@H](C)CO)C3=O)n(C)n1`, the relative growth was inactive: 1.01.
